Data: the antibiotic and cytotoxicity screens of Wong et al. (2023)
This is one part of the list.

Columns and labels:
HSkMC = human skeletal muscle cells; assay: cytotoxicity call (relative viability < 0.9); details: 10 µM
HepG2 = assay: cytotoxicity call (relative viability < 0.9); details: 10 µM
S. aureus RN4220 = assay: growth inhibition call (relative growth <= 0.2); details: 50 µM

Structure (SMILES) | cytotoxicity call (HSkMC) | cytotoxicity call (HepG2) | growth inhibition call (S. aureus RN4220)
Cc1ccc(S(=O)(=O)N(C)C[C@H]2Oc3ncc(C#CC4(O)CCCC4)cc3C(=O)N([C@@H](C)CO)C[C@H]2C)cc1 | inactive | inactive | inactive
Cn1cnc(S(=O)(=O)N2C[C@@H](O)COC[C@H]3O[C@H](CC(=O)NCc4cccc(F)c4)CC[C@@H]32)c1 | inactive | inactive | inactive
CC(C)NC(=O)Nc1ccc2c(c1)CC(=O)N([C@H](C)CO)C[C@@H](C)[C@H](CN(C)S(=O)(=O)c1cn(C)cn1)O2 | inactive | inactive | inactive
Cc1ccc(S(=O)(=O)N(C)C[C@@H]2Oc3ccc(NC(=O)C4CC4)cc3C(=O)N([C@@H](C)CO)C[C@H]2C)cc1 | inactive | active | inactive
C[C@@H]1CCCCO[C@H](CN(C)C(=O)Nc2cccc3ccccc23)[C@H](C)CN([C@@H](C)CO)C(=O)c2cc(NC(=O)C3CCCCC3)ccc2O1 | inactive | inactive | inactive
C[C@@H]1CN([C@H](C)CO)C(=O)c2cc(NC(=O)CCCCCC(=O)Nc3ccccc3N)ccc2O[C@H]1CN(C)C(=O)Nc1ccccc1 | inactive | inactive | inactive
CCN(CC)CCNc1ccc(COc2cccc(/C=C(C)/C=C/C(=O)NO)c2)c2sc3ccccc3c(=O)c12 | inactive | inactive | inactive
C=CC[C@@H](CC(=O)NCCO)C(=O)N[C@H](COC(=O)[C@@H](CC=C)CC(=O)OC(C)(C)C)Cc1ccccc1 | inactive | inactive | inactive
COc1ccccc1C(=O)Nc1ccc2c(c1)C(=O)N(C)[C@@H]1CC[C@@H](CC(=O)NCc3ccc(Cl)c(Cl)c3)O[C@@H]1CO2 | inactive | active | inactive
COc1cc(C2c3cc4c(cc3C(OC3OC5COC(c6cccs6)OC5C(O)C3O)C3COC(=O)C23)OCO4)cc(OC)c1O (centres undefined) | inactive | active | inactive
C[C@@H]1CN([C@H](C)CO)C(=O)c2c(c3ccccc3n2C)-c2ccccc2CO[C@H]1CN(C)Cc1ccc(C(=O)O)cc1 | inactive | inactive | inactive
C[C@H]1CN([C@@H](C)CO)C(=O)c2cc(NC(=O)Nc3ccc(F)cc3)ccc2O[C@H]1CN(C)CC1CCCCC1 | inactive | inactive | inactive
C=CCOC(=O)[C@@H]1[C@H]2C(=O)O[C@H](c3ccccc3)[C@H](c3ccccc3)N2[C@H](c2ccc(OCCOC(=O)[C@@H]3C[C@@H]4C(=O)N[C@@H](CCCC[N+](C)(C)C)C(=O)N4[C@@H]3c3cccc(OCCO)c3)cc2)[C@@]12C(=O)Nc1ccccc12 | inactive | inactive | inactive
C[C@@H]1CCCCO[C@@H](CN(C)S(=O)(=O)c2ccc(Cl)cc2)[C@@H](C)CN([C@H](C)CO)C(=O)c2cc(NC(=O)NC3CCCCC3)ccc2O1 | inactive | inactive | inactive
C=CC[C@@H](CC(=O)NCCO)C(=O)N[C@@H](COC(=O)[C@@H](CC=C)CC(=O)OC(C)(C)C)Cc1ccccc1 | inactive | inactive | inactive
C[C@@H]1CN([C@H](C)CO)C(=O)c2cc(NS(C)(=O)=O)ccc2O[C@@H](C)CCCCO[C@H]1CN(C)CC1CC1 | inactive | inactive | inactive
CC(=O)NC[C@H]1CN(c2ccc(N3CCN(C(=O)CO)CC3)c(F)c2)C(=O)O1 | inactive | inactive | active
C#CCCCCCCCCCCCC(O)CC(O)CO.C=CCCCCCCCCCCCC(O)CC(O)CO (centres undefined) | inactive | inactive | inactive
C/C(=C\C(=O)OCCCCCCCCC(=O)O)C[C@@H]1OC[C@H](C[C@@H]2O[C@H]2[C@@H](C)[C@H](C)O)[C@@H](O)[C@H]1O | inactive | inactive | inactive
C[C@@H]1CCCCO[C@H](CN(C)Cc2ccc(C(F)(F)F)cc2)[C@@H](C)CN([C@@H](C)CO)C(=O)c2cc(NC(=O)Nc3ccc4c(c3)OCO4)ccc2O1 | active | active | inactive
COc1ccc(NC(=O)Nc2ccc3c(c2)C(=O)N([C@@H](C)CO)C[C@H](C)[C@H](CN(C)Cc2ccncc2)OCCCC[C@H](C)O3)cc1 | inactive | inactive | inactive
C[C@@H]1CN([C@H](C)CO)C(=O)c2cccc(NC(=O)Nc3cccc4ccccc34)c2O[C@H]1CN(C)C(=O)Nc1ccc(C(F)(F)F)cc1 | inactive | inactive | inactive
C[C@H]1CN([C@@H](C)CO)C(=O)c2cc(NS(=O)(=O)c3ccc(F)cc3)ccc2O[C@H]1CN(C)S(C)(=O)=O | inactive | inactive | inactive
